# From PubChem BioAssay AID1347165 (National Center for Advancing Translational Sciences (NCATS), 2019)
# Out of some 220,000 compounds screened, about 5,700 (2.6%) were called active. The inconclusive results got no clear call from the source; some entries with a clear call stand among them for comparison. The call rests on the fitted dose curve; in most records, active means well fitted inhibition curve with a large enough effect; inconclusive means small, poorly fitted or top-dose-only effect; inactive means no such curve, though single readings can be large or run the other way. Potencies of inconclusive entries are doubtful fits and often do not repeat.
# Molecular target: Lysine-specific demethylase 5B (Homo sapiens) (UniProt Q9UGL1)
# Test: Primary screen for KDM5B Histone Demethylases FDH-coupled qHTS; further: nearly all actives have a fitted effect of over 70% in size; on activity change, negative = inhibition: 0% is about no effect
# Conditions: FDH-coupled NADH fluorescence (FDH is formaldehyde dehydrogenase); activity change, negative = inhibition: at 57.7 µM (top of the series) unless noted
# How it was run: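 qHTS format, multiple compound concentrations. Buffer 50 mM HEPES pH 7.5/0.01% Tween-20; 200 nM KDM5BΔAP final; 10 min compound preincubation; substrate-mix levels 12.5 µM peptide, 25 µM α-KG, 0.25 mM NAD⁺; 30 min RT; ΔRFU.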
# Potency means the concentration at half of the fitted maximal effect; tags describe the fitted curve by direction and shape.
# UniProt Q9UGL1, sequence (Q9UGL1 whole entry, looked up): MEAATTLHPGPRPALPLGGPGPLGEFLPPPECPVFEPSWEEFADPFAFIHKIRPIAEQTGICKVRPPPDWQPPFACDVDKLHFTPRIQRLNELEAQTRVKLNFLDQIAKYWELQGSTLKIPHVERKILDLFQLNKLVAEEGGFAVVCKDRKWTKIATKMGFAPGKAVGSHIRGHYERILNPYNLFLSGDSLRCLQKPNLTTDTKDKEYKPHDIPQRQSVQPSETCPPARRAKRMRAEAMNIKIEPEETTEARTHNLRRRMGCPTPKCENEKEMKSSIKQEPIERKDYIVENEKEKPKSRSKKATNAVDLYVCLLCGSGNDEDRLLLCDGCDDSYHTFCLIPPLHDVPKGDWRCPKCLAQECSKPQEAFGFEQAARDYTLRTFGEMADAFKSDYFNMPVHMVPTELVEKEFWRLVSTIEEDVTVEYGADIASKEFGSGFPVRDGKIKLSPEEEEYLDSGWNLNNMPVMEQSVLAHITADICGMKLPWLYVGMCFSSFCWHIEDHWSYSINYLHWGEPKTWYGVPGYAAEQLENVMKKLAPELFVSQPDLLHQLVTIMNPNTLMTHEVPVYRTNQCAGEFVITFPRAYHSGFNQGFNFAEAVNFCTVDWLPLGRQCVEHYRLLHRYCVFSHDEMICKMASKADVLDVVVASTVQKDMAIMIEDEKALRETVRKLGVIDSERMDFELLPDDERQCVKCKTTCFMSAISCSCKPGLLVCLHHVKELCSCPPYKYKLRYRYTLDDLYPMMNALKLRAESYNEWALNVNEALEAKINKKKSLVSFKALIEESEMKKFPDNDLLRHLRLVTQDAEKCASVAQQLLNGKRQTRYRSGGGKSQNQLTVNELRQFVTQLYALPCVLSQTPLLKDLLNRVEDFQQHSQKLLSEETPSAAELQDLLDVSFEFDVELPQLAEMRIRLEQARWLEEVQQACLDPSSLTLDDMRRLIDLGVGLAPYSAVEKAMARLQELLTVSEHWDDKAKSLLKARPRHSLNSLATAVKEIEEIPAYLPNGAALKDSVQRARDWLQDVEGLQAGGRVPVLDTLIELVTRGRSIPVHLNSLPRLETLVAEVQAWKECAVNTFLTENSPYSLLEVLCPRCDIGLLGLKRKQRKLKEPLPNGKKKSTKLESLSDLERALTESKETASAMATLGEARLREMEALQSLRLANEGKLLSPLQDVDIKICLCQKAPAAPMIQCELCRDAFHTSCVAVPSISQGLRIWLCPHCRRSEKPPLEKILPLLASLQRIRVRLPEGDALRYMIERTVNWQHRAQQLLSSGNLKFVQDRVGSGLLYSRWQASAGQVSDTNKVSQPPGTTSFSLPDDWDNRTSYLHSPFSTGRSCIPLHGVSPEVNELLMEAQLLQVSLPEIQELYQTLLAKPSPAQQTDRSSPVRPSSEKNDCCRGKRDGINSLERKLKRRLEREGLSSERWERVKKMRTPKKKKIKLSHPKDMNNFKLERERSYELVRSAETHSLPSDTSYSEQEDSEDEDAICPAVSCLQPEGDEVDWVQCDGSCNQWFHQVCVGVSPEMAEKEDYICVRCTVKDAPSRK
SMILES,Potency,"activity change, negative = inhibition"
COc1ccc(N2Cc3cccc(C(=O)Nc4cccc(F)c4)c3C2=O)cc1,"inconclusive: 44.7 µM [inhibitor, single point]",
BrCC1CCCNC1 (stereo not drawn),,inactive: 18.4%
C/C(=N/NC(=S)NC(C)C)c1ccc(Cl)cc1Cl,,inactive: 15.9%
Cc1cc(C)c2c(-n3cccc3)nn(CCCC(=O)NCc3ccc(Cl)cc3)c2n1,,inactive: -0.797%
CCOc1ccc(CC(=O)Nc2c(C(=O)c3ccc(F)cc3)oc3ccc(Cl)cc23)cc1OCC,"inconclusive: 35.5 µM [inhibitor, single point]",
COc1ccccc1-c1nc2cnccn2c1NCCC(=O)Nc1ccc2c(c1)OCO2,active: 28.2 µM,
CC(C)Oc1ccc(CNC(=O)c2cccc(NC(=O)c3nsc4ccccc34)c2)cc1,"inconclusive: 25.1 µM [inhibitor, partial curve, poor fit]",
CN(CCc1nc2ccccc2[nH]1)C(=O)C1COc2ccccc2C1 (stereo not drawn),,inactive: 8.61%
CCOc1cc(NC(=O)C2CC2)c(OCC)cc1NC(=O)c1cccc(F)c1,"inconclusive: 39.8 µM [inhibitor, single point]",
CC[C@@]1(C(=O)O)C[C@H](C(=O)NCc2ccccn2)[C@H](c2ccc(OC)cc2)N1C,"inconclusive: 25.1 µM [inhibitor, single point]",
CCc1cnc(N)nc1N1CCN(c2cnccn2)CC1,,inactive: 5.89%
CCOc1cccc(/C=C(/C#N)c2nc3ccccc3[nH]2)c1,"inconclusive: 31.6 µM [inhibitor, single point]",
COc1cccc2c(=O)n(CC(=O)NCCc3ccccc3)ccc12,"inconclusive: 31.6 µM [inhibitor, partial curve, poor fit]",
Cc1cc(C)c(S(=O)(=O)N2CCN(c3ccc(N4CCCCC4)nn3)CC2)cc1C,"inconclusive: 17.8 µM [inhibitor, single point]",
COc1cccc(-c2cc3c(=O)n(CCNC(=O)c4ccc(F)cc4)ccn3n2)c1,active: 28.2 µM,
NC(=O)[C@@H]1CCCN1C(=O)c1ccc2oc(-c3cccc(F)c3)nc2c1,"inconclusive: 31.6 µM [inhibitor, partial curve, poor fit]",
COc1ccc(N2CCN(c3oc(/C=C/c4ccccc4OC)nc3C#N)CC2)cc1,"inconclusive: 2.82 µM [inhibitor, full curve, poor fit]",
O=C(c1cc(-c2ccc(F)cc2)nc2ccccc12)N1CCN(C2CCS(=O)(=O)C2)CC1 (stereo not drawn),"inconclusive: 25.1 µM [inhibitor, partial curve, poor fit]",
COc1cc(C(=O)NNC(=S)NC(=O)c2ccc(F)cc2)cc(OC)c1OC,"inconclusive: 25.1 µM [inhibitor, single point]",
CNc1ccccc1C(=O)OC(C)C(=O)Nc1ccc(S(=O)(=O)N2CCCC2)cc1 (stereo not drawn),"inconclusive: 25.1 µM [inhibitor, partial curve, poor fit]",
CC(=O)c1cc(-c2ccccc2)n(CCC(=O)NC2CCCCC2)c1C,"inconclusive: 7.94 µM [inhibitor, partial curve, poor fit]",
COc1ncccc1-c1cnc2[nH]cc(CC(=O)NC(C)C)c2c1,active: 31.6 µM,
Fc1ccccc1COc1ccc(Br)cc1CNc1nn[nH]n1,,inactive: 2.78%

SMILES,Potency,"activity change, negative = inhibition"
Cn1ccc(C(=O)NCc2nnc3n2C(C(=O)NCC2CC2)CC3)n1 (stereo not drawn),active: 100 µM,
COc1ccc(C2C=C(c3ccccc3)Nc3nc(NC(=O)/C=C/c4ccccc4OC)nn32)cc1 (stereo not drawn),"inconclusive: 35.5 µM [inhibitor, single point]",
Cc1cccc(OCC(=O)N(Cc2ccc(N(C)C)cc2)Cc2ccco2)c1C,"inconclusive: 1.41 µM [inhibitor, full curve, poor fit]",
CC(C)(C)c1ccc(C(=O)NNC(=S)NC(=O)c2cccnc2)cc1,"inconclusive: 25.1 µM [inhibitor, single point]",
Cc1ccnc2nc(NC(=O)c3ccccc3Cl)nn12,,inconclusive: -30.5% [inhibitor]
COc1cc(NC(=O)[C@H]2CCC[C@H]2NC(=O)c2cnc(C)cn2)cc(OC)c1OC,,inactive: -1.1%
CCOc1ccc(NC(=O)c2c(NCc3cccs3)sc3c2CCCCC3)cc1,"inconclusive: 31.6 µM [inhibitor, single point]",
Cc1nc(CCNc2nc(-c3ccccn3)nc3c2c(C)nn3C)no1,"inconclusive: 25.1 µM [inhibitor, partial curve, poor fit]",
CCOc1ccc(-c2cc(C(=O)N/N=C(\C)c3cccnc3)c3ccccc3n2)cc1,"inconclusive: 35.5 µM [inhibitor, partial curve, poor fit]",
CCCNC(=O)C1CCCN(Cc2cccc(C(F)(F)F)c2)C1 (stereo not drawn),,inactive: -6.29%
Cc1cc(C)c2c(=O)n(CC(=O)Nc3cccc(Cl)c3C)sc2n1,"inconclusive: 2.51 µM [inhibitor, full curve, poor fit]",
Cc1ccc2nc(-c3cccnc3)cc(C(=O)Nc3cccc(C)n3)c2c1,"inconclusive: 35.5 µM [inhibitor, single point]",
COc1cccc(NC(=O)CSC2=Nc3ccccc3C3=NC(CC(=O)NCc4ccccc4OC)C(=O)N23)c1 (stereo not drawn),"inconclusive: 28.2 µM [inhibitor, partial curve, poor fit]",
CCCCNC(=O)CCSc1nc(-c2ccc3c(c2)OCO3)cc(C(F)(F)F)n1,"inconclusive: 7.08 µM [inhibitor, partial curve, poor fit]",
CC(CNC(=O)c1cc(C2CC2)nc2ccccc12)c1ccccc1 (stereo not drawn),,inactive: -5.47%
CC1(C(=O)N(CC(=O)NC2CCCC2)Cc2ccccc2)CC(=O)N=C2C=CC=CN21 (stereo not drawn),"inconclusive: 25.1 µM [inhibitor, partial curve, poor fit]",
CCN(CC)C[C@H]1O[C@H](Cc2cc(-c3ccccc3)on2)CC[C@@H]1O,,inactive: 2.15% [at 86.2 µM]
COCCN(C)C[C@@H]1CN(C(=O)c2cc3ccccc3n(C)c2=O)C[C@@H]1CO,"inconclusive: 28.2 µM [inhibitor, partial curve, poor fit]",
O=C1NC[C@H]2CN(Cc3ccc(C(F)(F)F)cc3)CCN12,"inconclusive: 28.2 µM [inhibitor, single point]",
NC(N)=NCc1ccc(F)cc1,"inconclusive: 25.1 µM [inhibitor, partial curve, poor fit]",
CCOc1ccc(NC(=O)CCC(=O)N2CCSc3ccccc32)cc1,"inconclusive: 25.1 µM [inhibitor, partial curve, poor fit]",
CCOc1ccc(NC(=O)Cn2c(C)cc3nc4n(c(=O)c32)CCC4)cc1,,inactive: 21.1%
COCC(=O)N[C@H]1C[C@H]2C(=O)Nc3ccc(-c4ccsc4)cc3C(=O)N2C1,"inconclusive: 35.5 µM [inhibitor, single point]",

SMILES,Potency,"activity change, negative = inhibition"
c1ccc(-c2cc3c(cn2)NCCN(CC2CC2)C3)cc1,active: 35.5 µM,
COCCNC(=O)c1ccc2c(c1)NC(C)(COc1ccc(OC)cc1)CO2 (stereo not drawn),active: 35.5 µM,
Cc1cc(C)c2c(CC(=O)N3CCc4c(nc[nH]c4=O)C3)coc2c1C,,inactive: -0.956%
CC(=O)Nc1ccc(NC(=O)CSc2nc3ccccc3c(=O)[nH]2)cc1,,inactive: 10.7%
COC(=O)/C=C1/S/C(=N/NC(=O)c2ccc(Cl)cc2Cl)NC1=O,"inconclusive: 20 µM [inhibitor, partial curve, poor fit]",
O=C(O)/C=C/C(=O)Nc1ccc(N2CCOCC2)cc1,"inconclusive: 7.08 µM [inhibitor, full curve, poor fit]",
O=C(COC(=O)c1cc(=O)c2ccccc2o1)c1ccc(OC(F)F)cc1,,inactive: 0.833%
Cn1c(Cl)c(C=O)c2cc(C=O)ccc21,"inconclusive: 25.1 µM [inhibitor, partial curve, poor fit]",
COc1ccccc1-c1nc(C(=O)NCc2cccs2)n2ccncc12,active: 28.2 µM,
CCOC(=O)c1c(-c2ccc(-c3ccccc3)cc2)csc1NC(=O)CNCCN(C)C,"inconclusive: 39.8 µM [inhibitor, single point]",
Cc1noc([C@@H](C)NC(=O)Nc2ccc(Cl)cc2)c1C(=O)O,active: 39.8 µM,
N#C/C(=C/c1ccc(O)cc1)c1nc2ccccc2[nH]1,"inconclusive: 39.8 µM [inhibitor, single point]",
COc1ccc(-c2nc3scc(CCNC(=O)c4cccc(Br)c4)n3n2)cc1,,inconclusive: -46.4% [inhibitor] [at 11.5 µM]
CCOC(=O)c1ccc(NC(=O)CC2Nc3ccccc3NC2=O)cc1 (stereo not drawn),"inconclusive: 10 µM [inhibitor, partial curve, poor fit]",
Fc1cccc(NC(=S)NCCCCc2ccccc2)c1,,inactive: 6.16%
CC(C)N(Cc1ccccc1)C(=O)C1CCCN(c2ncnc3onc(-c4ccc(F)cc4)c23)C1 (stereo not drawn),"inconclusive: 50.1 µM [inhibitor, single point]",
Cn1c(=O)[nH]c(=O)c2c1nc(NCCCO)n2CC(O)COc1ccc(Cl)cc1 (stereo not drawn),,inactive: 11.9%
CNC(=O)[C@H]1C[C@H](Oc2ccccc2)CN1Cc1cn(C)c2ccc(OC)cc12,"inconclusive: 15.8 µM [inhibitor, single point]",
CCCNC(=O)N1CC[C@@H](CC(=O)O)[C@@H](CC2=NCCc3cc(F)ccc32)C1,active: 31.6 µM,
COCC(=O)Nc1cccc(-c2nc3cccnc3s2)c1,"inconclusive: 28.2 µM [inhibitor, partial curve, poor fit]",
Cc1cc(C)c(CNC(=O)c2cc(-c3ccccc3C)cc3c2OCCN3C(C)C)c(=O)[nH]1,active: 31.6 µM,
CC(Sc1nnc(-c2ccncc2)n1C1CC1)C(=O)c1ccc(F)cc1 (stereo not drawn),,inactive: -20.3%
